Among the data in the antibiotic and cytotoxicity screens of Wong et al. (2023) are cytotoxicity call and growth inhibition call values, retold here.

One test deals with HSkMC. Put plainly: cytotoxicity call (relative viability < 0.9). The settings on record: 10 µM.
The next test deals with HepG2. Put plainly: cytotoxicity call (relative viability < 0.9). The settings on record: 10 µM.
A further test deals with S. aureus RN4220. Put plainly: growth inhibition call (relative growth <= 0.2). Particulars: 50 µM.

Molecules are shown by their SMILES. This is one part of the list.

In the case of `C[C@@H]1CN([C@H](C)CO)C(=O)c2cc(NC(=O)Cc3ccccc3)ccc2O[C@H]1CN(C)Cc1ccc(C(=O)Nc2ccccc2N)cc1`, the cytotoxicity call with HSkMC and in the test with HepG2 was “inactive” throughout. In addition, in the test with S. aureus RN4220, the growth inhibition call is “inactive”.
Regarding `CCCC#Cc1ccc2c(c1)O[C@H](CN(C)S(=O)(=O)c1cccc(F)c1)[C@@H](C)CN([C@H](C)CO)S2(=O)=O`, the cytotoxicity call with HSkMC and in the test on HepG2 was “inactive” each time. Further, in the test with S. aureus RN4220, the growth inhibition call is “inactive”.
In the case of `O=C(O)CCC(=O)O.O=C(OC1CN2CCC1CC2)N1CCc2ccccc2C1c1ccccc1` (centres undefined), the cytotoxicity call in the test on HSkMC and in the test on HepG2 was “inactive” in each case. Besides, the growth inhibition call in the test on S. aureus RN4220 is “inactive”.
Take `C[C@H]1CN([C@@H](C)CO)C(=O)CCCn2cc(nn2)CO[C@@H]1CN(C)S(=O)(=O)c1ccc(-n2cccn2)cc1`: the cytotoxicity call with HSkMC and in the test with HepG2 was “inactive” throughout. Besides, the growth inhibition call in the test with S. aureus RN4220 is “inactive”.
For the compound `COc1cccc(S(=O)(=O)N2C[C@H](O)COC[C@H]3O[C@H](CC(=O)N4CCN(C)CC4)CC[C@@H]32)c1`, the cytotoxicity call with HSkMC and in the test with HepG2 was “inactive” each time. Also, the growth inhibition call with S. aureus RN4220 is “inactive”.
As to `CC(C)NC(=O)N(C)C[C@@H]1Oc2ccc(NS(=O)(=O)c3cccs3)cc2C(=O)N([C@@H](C)CO)C[C@H]1C`, the cytotoxicity call with HSkMC and in the test with HepG2 was “inactive” each time. For the same compound, the growth inhibition call in the test with S. aureus RN4220 was “inactive”.
Consider `C[C@@H]1CN([C@H](C)CO)S(=O)(=O)c2ccc(C#CC3CC3)cc2O[C@H]1CN(C)Cc1ccccc1F`, for which the cytotoxicity call in the test on HSkMC and in the test on HepG2 was “inactive” throughout. Further, the growth inhibition call with S. aureus RN4220 is “inactive”.
On to `C[C@@H]1CCCCO[C@@H](CN(C)Cc2ccc(C(F)(F)F)cc2)[C@@H](C)CN([C@H](C)CO)C(=O)c2cc(NS(=O)(=O)c3cccs3)ccc2O1`, for which the cytotoxicity call with HSkMC is “inactive”. For the same compound, in the test with HepG2, the cytotoxicity call is “active”. Also, in the test on S. aureus RN4220, the growth inhibition call was “inactive”.
For the compound `COCC(=O)N(C)C[C@H]1Oc2cc(C#C[C@H](C)O)ccc2S(=O)(=O)N([C@H](C)CO)C[C@@H]1C`, the cytotoxicity call with HSkMC and with HepG2 was “inactive” in each case. Further, the growth inhibition call with S. aureus RN4220 was “inactive”.
On to `Cc1noc(C)c1NC(=O)N(C)C[C@H]1OCCCC[C@@H](C)Oc2ccc(NC(=O)NC3CCCCC3)cc2C(=O)N([C@H](C)CO)C[C@@H]1C`, for which the cytotoxicity call in the test on HSkMC is “inactive”. Moreover, the cytotoxicity call in the test with HepG2 is “active”. For the same compound, the growth inhibition call with S. aureus RN4220 was “inactive”.
In the case of `C[C@H]1CN([C@@H](C)CO)C(=O)c2cc(C#Cc3ccccc3F)cnc2O[C@H]1CN(C)C(=O)C1CCOCC1`, the cytotoxicity call in the test with HSkMC and in the test on HepG2 was “inactive” throughout. The growth inhibition call with S. aureus RN4220 was “inactive”.
As for `COc1ccc(CN(C)C[C@@H]2Oc3c(NS(C)(=O)=O)cccc3C(=O)N([C@@H](C)CO)C[C@H]2C)cc1`, the cytotoxicity call with HSkMC and in the test on HepG2 was “inactive” in each case. The growth inhibition call in the test with S. aureus RN4220 is “inactive”.
As to `C[C@H]1CCCCO[C@@H](CN(C)Cc2ccc(C(=O)Nc3ccccc3N)cc2)[C@@H](C)CN([C@@H](C)CO)C(=O)c2cc(N(C)C)ccc2O1`, the cytotoxicity call in the test on HSkMC and in the test with HepG2 was “inactive” throughout. Further, the growth inhibition call in the test with S. aureus RN4220 was “inactive”.
As for `Cc1ccc(C(=N)N)n1C`, the cytotoxicity call in the test with HSkMC and in the test with HepG2 was “inactive” throughout. The growth inhibition call with S. aureus RN4220 is “inactive”.
Turning to `CO[C@@H]1CN(C)C(=O)c2ccc(NS(C)(=O)=O)cc2OC[C@@H](C)N(C(=O)c2ccc3c(c2)OCO3)C[C@H]1C`, the cytotoxicity call with HSkMC and with HepG2 was “inactive” each time. In addition, the growth inhibition call with S. aureus RN4220 is “inactive”.
As for `COc1ccc(S(=O)(=O)N(C)C[C@H]2Oc3c(NC(=O)NC(C)C)cccc3C(=O)N([C@@H](C)CO)C[C@H]2C)cc1`, the cytotoxicity call with HSkMC and in the test on HepG2 was “inactive” in each case. In addition, the growth inhibition call in the test with S. aureus RN4220 is “inactive”.
As to `COCC#Cc1ccc([C@@H]2[C@@H](CO)N3C(=O)CN(C(=O)c4ccncc4)C[C@@H]23)cc1`, the cytotoxicity call in the test on HSkMC and in the test with HepG2 was “inactive” in each case. In the test on S. aureus RN4220, the growth inhibition call was “inactive”.
For the compound `C[C@@H]1CN([C@H](C)CO)S(=O)(=O)c2ccc(C#CC3(O)CCCC3)cc2O[C@@H]1CN(C)C(=O)Nc1cccc(F)c1`, the cytotoxicity call in the test with HSkMC and with HepG2 was “inactive” in each case. In addition, the growth inhibition call in the test on S. aureus RN4220 is “inactive”.
Regarding `C[C@@H]1CN([C@H](C)CO)C(=O)c2cc(NC(=O)c3ccccc3)ccc2O[C@@H](C)CCCCO[C@@H]1CN(C)S(=O)(=O)c1cccs1`, the cytotoxicity call with HSkMC and in the test with HepG2 was “inactive” throughout. Moreover, in the test on S. aureus RN4220, the growth inhibition call is “inactive”.
As to `C[C@H](CO)N1C[C@H](C)[C@@H](CN(C)Cc2ccc(Oc3ccccc3)cc2)Oc2ccc(NC(=O)Nc3ccc4c(c3)OCO4)cc2CC1=O`, the cytotoxicity call in the test with HSkMC was “active”. Also, the cytotoxicity call in the test on HepG2 was “inactive”. Also, the growth inhibition call in the test with S. aureus RN4220 was “inactive”.
In the case of `COc1ccc2c3c([nH]c2c1)[C@H](CO)N(C[C@]13CCN(CC1)Cc1ccccc1)C(=O)CN1CCOCC1`, in the test on HSkMC, the cytotoxicity call was “inactive”. Moreover, the cytotoxicity call in the test on HepG2 is “active”. In addition, the growth inhibition call in the test with S. aureus RN4220 was “inactive”.
For `C[C@@H]1CN([C@H](C)CO)C(=O)c2cc(NC(=O)c3ccccc3)ccc2O[C@@H](C)CCCCO[C@H]1CN(C)S(=O)(=O)c1ccccc1`, the cytotoxicity call with HSkMC was “inactive”. Besides, in the test with HepG2, the cytotoxicity call is “active”. Also, the growth inhibition call with S. aureus RN4220 is “inactive”.
Turning to `Cc1cc(C(=O)Nc2cccc3c2O[C@@H](CN(C)S(C)(=O)=O)[C@@H](C)CN([C@H](C)CO)C3=O)n(C)n1`, the cytotoxicity call in the test with HSkMC and with HepG2 was “inactive” throughout. Further, in the test on S. aureus RN4220, the growth inhibition call is “inactive”.
Turning to `C[C@@H]1CN([C@H](C)CO)C(=O)c2c(c3ccccc3n2C)-c2ccccc2CO[C@H]1CN(C)C(=O)Nc1ccc(F)cc1`, the cytotoxicity call in the test on HSkMC and in the test with HepG2 was “inactive” throughout. Further, the growth inhibition call with S. aureus RN4220 was “inactive”.
As for `C[C@H]1CCCCO[C@H](CN(C)C(=O)CCC(F)(F)F)[C@@H](C)CN([C@@H](C)CO)C(=O)c2cc(NS(=O)(=O)c3cccs3)ccc2O1`, the cytotoxicity call in the test with HSkMC and with HepG2 was “inactive” each time. In addition, in the test with S. aureus RN4220, the growth inhibition call was “inactive”.
For the compound `Cc1ccc2c(c1)c1nc3ccccc3nc1n2Cc1ccccc1`, the cytotoxicity call in the test with HSkMC and in the test on HepG2 was “inactive” in each case. Also, the growth inhibition call with S. aureus RN4220 is “inactive”.
In the case of `C[C@@H]1CN([C@@H](C)CO)C(=O)c2cccc(NS(C)(=O)=O)c2O[C@@H]1CN(C)S(=O)(=O)c1cn(C)cn1`, the cytotoxicity call in the test with HSkMC and in the test with HepG2 was “inactive” in each case. The growth inhibition call with S. aureus RN4220 is “inactive”.
In the case of `COc1cc2c(cc1OC)CN(C(=O)[C@H]1[C@@H]3C(=O)O[C@@H](c4ccccc4)[C@@H](c4ccccc4)N3[C@@H](c3ccccc3OCCO)[C@]13C(=O)Nc1ccc(C#CC4=CCCCC4)cc13)CC2`, the cytotoxicity call in the test on HSkMC (human skeletal muscle cells) and with HepG2 was “inactive” each time. Moreover, in the test on S. aureus RN4220, the growth inhibition call was “inactive”.
